# Assay results published in the supplement of paper PMC4604168 (melanoma cell lines).
# This is one part of the list. Most values come without repeats; read them as rough.
# Key:
# Experiment in all cases: cell count relative to DMSO control; melanoma cells; higher = more viable cells
# Conditions in all cases: library dose: standard library concentration; 72 h; first compound 2 µM
# G361 = tested on: G361
# IPC-298 = tested on: IPC-298
# IST-MEL1 = tested on: IST-MEL1
# LB2518-MEL = tested on: LB2518-MEL
# LOXIMVI = tested on: LOXIMVI
# MEL-HO = tested on: MEL-HO
# MZ2-MEL = tested on: MZ2-MEL
# MeWo = tested on: MeWo
# RPMI7951 = tested on: RPMI7951
# RVH-421 = tested on: RVH-421
# SkMel28 = tested on: SkMel28
# SkMel2 = tested on: SkMel2
# SkMel30 = tested on: SkMel30
# SkMel5 = tested on: SkMel5
# UACC257 = tested on: UACC257
# UACC62 = tested on: UACC62
# WM115 = tested on: WM115
# WM1716 = tested on: WM1716
# WM1745 = tested on: WM1745
# WM3526 = tested on: WM3526
# 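Note: cells treated in 1,536-well plates, then fixed and DAPI-stained, with nuclei counted from automated high-throughput microscope images.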
smiles,measurement,setting,value
C[C@@H](N)c1ccc(C(=O)Nc2ccnc3[nH]ccc23)cc1 + Cn1c(=O)n(-c2ccc(C(C)(C)C#N)cc2)c2c3cc(-c4cnc5ccccc5c4)ccc3ncc21 [NVP-BEZ235] (partner dose 0.02 µM),cell count,G361,48.8%
same,cell count,IPC-298,67.7%
same,cell count,IST-MEL1,64.7%
same,cell count,LB2518-MEL,81.1%
same,cell count,LOXIMVI,47.1%
same,cell count,MEL-HO,44.7%
same,cell count,MZ2-MEL,36.4%
same,cell count,MeWo,48.6%
same,cell count,RPMI7951,47.9%
same,cell count,RVH-421,52.2%
same,cell count,SkMel28,43.5%
same,cell count,SkMel2,74.4%
same,cell count,SkMel30,54.1%
same,cell count,SkMel5,44.7%
same,cell count,UACC257,83.2%
same,cell count,UACC62,60.9%
same,cell count,WM115,63.9%
same,cell count,WM1716,54.5%
same,cell count,WM1745,55.3%
same,cell count,WM3526,62.7%
Cn1sc(=O)n(Cc2ccccc2)c1=O + CO[C@H]1C[C@@H]2CC[C@@H](C)[C@@](O)(O2)C(=O)C(=O)N2CCCC[C@H]2C(=O)O[C@H]([C@H](C)C[C@@H]2CC[C@@H](OCCO)[C@H](OC)C2)CC(=O)[C@H](C)/C=C(\C)[C@@H](O)[C@@H](OC)C(=O)[C@H](C)C[C@H](C)/C=C/C=C/C=C/1C [everolimus] (partner dose 0.1 µM),cell count,G361,67.5%
same,cell count,IPC-298,69.1%
same,cell count,IST-MEL1,87.6%
same,cell count,LB2518-MEL,82.6%
same,cell count,LOXIMVI,88%
same,cell count,MEL-HO,71.5%
same,cell count,MZ2-MEL,98.3%
same,cell count,MeWo,86%
same,cell count,RPMI7951,78%
same,cell count,RVH-421,77.5%
same,cell count,SkMel28,47.7%
same,cell count,SkMel2,80.2%
same,cell count,SkMel30,83.9%
same,cell count,SkMel5,74.2%
same,cell count,UACC257,108%
same,cell count,UACC62,74%
same,cell count,WM115,73.2%
same,cell count,WM1716,77.9%
same,cell count,WM1745,96.1%
same,cell count,WM3526,109%
C[C@@H](N)c1ccc(C(=O)Nc2ccnc3[nH]ccc23)cc1 + CC(=O)c1c(C)c2cnc(Nc3ccc(N4CCNCC4)cn3)nc2n(C2CCCC2)c1=O [palbociclib] (partner dose 0.2 µM),cell count,G361,53.3%
same,cell count,IPC-298,73.9%
same,cell count,IST-MEL1,73.1%
same,cell count,LB2518-MEL,65.9%
same,cell count,LOXIMVI,78.9%
same,cell count,MEL-HO,32.4%
same,cell count,MZ2-MEL,45%
same,cell count,MeWo,44.6%
same,cell count,RPMI7951,41.5%
same,cell count,RVH-421,80.6%
same,cell count,SkMel28,32.1%
same,cell count,SkMel2,70.2%
same,cell count,SkMel30,58.6%
same,cell count,SkMel5,40.2%
same,cell count,UACC257,33.2%
same,cell count,UACC62,48.6%
same,cell count,WM115,65.6%
same,cell count,WM1716,30.3%
same,cell count,WM1745,52.2%
same,cell count,WM3526,49.2%
C[C@@H](N)c1ccc(C(=O)Nc2ccnc3[nH]ccc23)cc1 + CC(=O)O[C@@]12CO[C@@H]1C[C@H](O)[C@@]1(C)C(=O)[C@H](O)C3=C(C)[C@@H](OC(=O)[C@H](O)[C@@H](NC(=O)OC(C)(C)C)c4ccccc4)C[C@@](O)([C@@H](OC(=O)c4ccccc4)[C@H]21)C3(C)C [Docetaxel] (partner dose 0.0005 µM),cell count,G361,12.3%
same,cell count,IPC-298,37.5%
same,cell count,IST-MEL1,29.3%
same,cell count,LB2518-MEL,36.1%
same,cell count,LOXIMVI,60.4%
same,cell count,MEL-HO,42.8%
same,cell count,MZ2-MEL,36.2%
same,cell count,MeWo,23.6%
same,cell count,RPMI7951,24.2%
same,cell count,RVH-421,44.4%
same,cell count,SkMel28,14.9%
same,cell count,SkMel2,20.8%
same,cell count,SkMel30,36.8%
same,cell count,SkMel5,31.6%
same,cell count,UACC257,54.8%
same,cell count,UACC62,50.2%
same,cell count,WM115,55.7%
same,cell count,WM1716,23.5%
same,cell count,WM1745,32.2%
same,cell count,WM3526,39.5%
CCCCCCCCCCCCCCCCCCOP(=O)([O-])OC1CC[N+](C)(C)CC1 [Perifosine] + CCCCCCCCc1ccc(CCC(N)(CO)CO)cc1 [fingolimod] (partner dose 10 µM),cell count,G361,0.522%
same,cell count,IPC-298,40.7%
same,cell count,IST-MEL1,23.7%
same,cell count,LB2518-MEL,0.168%
same,cell count,LOXIMVI,24.4%
same,cell count,MEL-HO,2.74%
same,cell count,MZ2-MEL,34.8%
same,cell count,MeWo,57.5%
same,cell count,RPMI7951,0.99%
same,cell count,RVH-421,44.1%
same,cell count,SkMel28,1.93%
same,cell count,SkMel2,0.093%
same,cell count,SkMel30,10.6%
same,cell count,SkMel5,70.2%
same,cell count,UACC257,75.8%
same,cell count,UACC62,14%
same,cell count,WM115,22.7%
same,cell count,WM1716,61.9%
same,cell count,WM1745,5.25%
same,cell count,WM3526,44.5%
Cn1sc(=O)n(Cc2ccccc2)c1=O + Cn1c(Nc2ccc(C(F)(F)F)cc2)nc2cc(Oc3ccnc(-c4ncc(C(F)(F)F)[nH]4)c3)ccc21 [CHIR265] (partner dose 0.4 µM),cell count,G361,28.3%
same,cell count,IPC-298,43.9%
same,cell count,IST-MEL1,81.6%
same,cell count,LB2518-MEL,42.8%
same,cell count,LOXIMVI,85.5%
same,cell count,MEL-HO,58.3%
same,cell count,MZ2-MEL,62.5%
same,cell count,MeWo,71.1%
same,cell count,RPMI7951,37.1%
same,cell count,RVH-421,57%
same,cell count,SkMel28,30.3%
same,cell count,SkMel2,54.7%
same,cell count,SkMel30,73.5%
same,cell count,SkMel5,34.2%
same,cell count,UACC257,70.7%
same,cell count,UACC62,40.2%
same,cell count,WM115,34.7%
same,cell count,WM1716,70.4%
same,cell count,WM1745,62.1%
same,cell count,WM3526,45.3%
C[C@@H](N)c1ccc(C(=O)Nc2ccnc3[nH]ccc23)cc1 + Nc1ccn([C@@H]2O[C@H](CO)[C@@H](O)C2(F)F)c(=O)n1 [gemcitabine] (partner dose 0.002 µM),cell count,G361,35.2%
same,cell count,IPC-298,50%
same,cell count,IST-MEL1,50.2%
same,cell count,LB2518-MEL,79.9%
same,cell count,LOXIMVI,66.8%
same,cell count,MEL-HO,46.2%
same,cell count,MZ2-MEL,55.5%
same,cell count,MeWo,38.6%
same,cell count,RPMI7951,52.5%
same,cell count,RVH-421,32.5%
same,cell count,SkMel28,128%
same,cell count,SkMel2,117%
same,cell count,SkMel30,107%
same,cell count,SkMel5,73%
same,cell count,UACC257,70.3%
same,cell count,UACC62,77.7%
same,cell count,WM115,109%
same,cell count,WM1716,34.5%
same,cell count,WM1745,36.6%
same,cell count,WM3526,139%
Cn1sc(=O)n(Cc2ccccc2)c1=O + CC(=O)c1c(C)c2cnc(Nc3ccc(N4CCNCC4)cn3)nc2n(C2CCCC2)c1=O [palbociclib] (partner dose 0.2 µM),cell count,G361,66.6%
same,cell count,IPC-298,74.2%
same,cell count,IST-MEL1,75%
same,cell count,LB2518-MEL,60.7%
same,cell count,LOXIMVI,53.2%
same,cell count,MEL-HO,79.2%
same,cell count,MZ2-MEL,70%
same,cell count,MeWo,73.3%
same,cell count,RPMI7951,63.7%
same,cell count,RVH-421,68.9%
same,cell count,SkMel28,42.5%
same,cell count,SkMel2,68.6%
same,cell count,SkMel30,56.4%
same,cell count,SkMel5,70.7%
same,cell count,UACC257,74.4%
same,cell count,UACC62,69.4%
same,cell count,WM115,82.7%
same,cell count,WM1716,48%
same,cell count,WM1745,85%
same,cell count,WM3526,53.2%
Cn1sc(=O)n(Cc2ccccc2)c1=O + CC1(C)NC(=O)N(c2ccc([N+](=O)[O-])c(C(F)(F)F)c2)C1=O [nilutamide] (partner dose 5 µM),cell count,G361,77.2%
same,cell count,IPC-298,95.3%
same,cell count,IST-MEL1,99.6%
same,cell count,LB2518-MEL,91.8%
same,cell count,LOXIMVI,92.2%
same,cell count,MEL-HO,78.4%
same,cell count,MZ2-MEL,97.6%
same,cell count,MeWo,84.2%
same,cell count,RPMI7951,59.7%
same,cell count,RVH-421,124%
same,cell count,SkMel28,85.1%
same,cell count,SkMel2,92.8%
same,cell count,SkMel30,87%
same,cell count,SkMel5,80.5%
same,cell count,UACC257,94.4%
same,cell count,UACC62,87.7%
same,cell count,WM115,77.5%
same,cell count,WM1716,90.9%
same,cell count,WM1745,127%
same,cell count,WM3526,81.3%
